From patent US20210032308A1 (published 2021)

Target: T1, recombinant human CD2 (biotinylated) (human, UniProt P06729 25-209, biotinylated (site not stated))
T1 construct: also called hCD2-biotin; human recombinant CD2
T1 sequence: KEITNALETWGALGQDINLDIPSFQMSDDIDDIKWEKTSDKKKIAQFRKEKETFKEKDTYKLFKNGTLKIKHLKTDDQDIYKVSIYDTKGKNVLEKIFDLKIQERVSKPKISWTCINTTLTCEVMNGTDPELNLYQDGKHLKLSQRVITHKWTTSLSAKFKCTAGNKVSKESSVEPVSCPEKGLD
Assay: SPR (FIG. 7C)

B1: M1-d3 Fc fusion protein (Fc fusion)
chain: FSQQIYGVVYGNVTFHVPSNVPLKEVLWKKQKDKVVEFENSEVRAFSSFKNRVYLDTVSGSLTIYNLTSSDEDEYEMESPNITDTFKFFLYVLESLPS[human IgG1 Fc not shown]
  binding result: binds
